# Assay results from PMC5700166.
# Only a part is listed here, and it is no random draw. The list includes weakly bound sequences.
# Molecular target: T1, GST-Ap-NF-kB RHD (UniProt A0A913YAJ5)
# T1 sequence: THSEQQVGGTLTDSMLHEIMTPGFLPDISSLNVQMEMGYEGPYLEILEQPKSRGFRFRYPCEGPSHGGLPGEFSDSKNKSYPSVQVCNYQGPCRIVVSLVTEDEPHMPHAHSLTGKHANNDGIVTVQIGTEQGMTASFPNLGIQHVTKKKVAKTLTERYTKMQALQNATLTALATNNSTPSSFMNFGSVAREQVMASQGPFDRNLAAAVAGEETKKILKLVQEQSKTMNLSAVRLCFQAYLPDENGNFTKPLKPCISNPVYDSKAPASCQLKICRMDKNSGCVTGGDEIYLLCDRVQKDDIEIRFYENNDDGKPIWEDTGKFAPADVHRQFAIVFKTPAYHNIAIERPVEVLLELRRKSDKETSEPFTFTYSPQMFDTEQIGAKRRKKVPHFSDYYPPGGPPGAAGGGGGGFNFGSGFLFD
# Test: protein-binding microarray (PBM)
# Settings: PBM: ~300 nM protein, 6 mM HEPES pH 7.8, 80 mM KCl, 0.5 mM EDTA, 0.5 mM EGTA, 6% glycerol, 35 ng/ul poly-dIdC, 1% milk, 1 h, room temperature; Ap Aiptasia and Nv Nematostella (sea anemones) / Co Capsaspora / Aq Amphimedon (sponge) / Dm Drosophila / Hu human; RHD is the Rel homology domain; high values mean tight binding; most listed sequences are background and not binding sites; double strand, one strand shown
row,Sequence,binding signal [z-score]
1,CCGATTAACATCAAGGGGGGTAATGATGTTAATCGGGTCTTGATTCGCTTGACGCTGCTG,4.04
2,CCGATTAACATCAGAAACCCCCATGATGTTAATCGGGTCTTGATTCGCTTGACGCTGCTG,7.61
3,CCGATTAACATCAGAAATTTCCATGATGTTAATCGGGTCTTGATTCGCTTGACGCTGCTG,0.388
4,CCGATTAACATCAGGGAGGGAAATGATGTTAATCGGGTCTTGATTCGCTTGACGCTGCTG,2.6
5,CCGATTAACATCAGGAGACTCCCTGATGTTAATCGGGTCTTGATTCGCTTGACGCTGCTG,2.16
6,CCGATTAACATCAGGGGAAAACATGATGTTAATCGGGTCTTGATTCGCTTGACGCTGCTG,6.62
7,CCGATTAACATCACATACTCCCCTGATGTTAATCGGGTCTTGATTCGCTTGACGCTGCTG,4.4
8,CCGATTAACATCACGGAATTTCCTGATGTTAATCGGGTCTTGATTCGCTTGACGCTGCTG,0.0152
9,CCGATTAACATCAGGAATTTTACTGATGTTAATCGGGTCTTGATTCGCTTGACGCTGCTG,-0.114
10,CCGATTAACATCAGGAAACTTCCTGATGTTAATCGGGTCTTGATTCGCTTGACGCTGCTG,-0.386
11,CCGATTAACATCAAGAAAATTCCTGATGTTAATCGGGTCTTGATTCGCTTGACGCTGCTG,0.0459
12,CCGATTAACATCAGGAAAGGCCCTGATGTTAATCGGGTCTTGATTCGCTTGACGCTGCTG,2.38
13,CCGATTAACATCAAAAATTCCACTGATGTTAATCGGGTCTTGATTCGCTTGACGCTGCTG,0.175
14,CCGATTAACATCAAAATCTTCCCTGATGTTAATCGGGTCTTGATTCGCTTGACGCTGCTG,5.74
